Measured values reported in PubChem BioAssay (NCATS).
This list was built around the results that the source calls inconclusive (neither active nor inactive); the mix of calls is not that of the screen. Potencies of inconclusive entries are left out as doubtful fits. Active and inactive are the calls of the source. Calls follow the shape of the dose curve; as a rule, active = well fitted activation curve with a large enough effect; inconclusive = small, poorly fitted or top-dose-only effect; inactive = no such curve, though single readings can be large or run the other way.

What follows are molecules tested against Rap guanine nucleotide exchange factor 3 (Homo sapiens) (UniProt O95398) (assay: Confirmatory qHTS for agonist of cAMP-regulated guanine nucleotide exchange factor 3 (EPAC1) (AID 1645881; also: nearly all actives have a fitted effect of over 75% in size;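 as to activation: EPAC1 catalysed release of BODIPY-GDP from Rap1B seen as fluorescence loss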)). Settings: EPAC1 Rap1B BODIPY-GDP exchange fluorescence; activation: at 154 µM (top of the series), 100% = cAMP control response.
Chain of UniProt O95398 (O95398 whole entry, looked up): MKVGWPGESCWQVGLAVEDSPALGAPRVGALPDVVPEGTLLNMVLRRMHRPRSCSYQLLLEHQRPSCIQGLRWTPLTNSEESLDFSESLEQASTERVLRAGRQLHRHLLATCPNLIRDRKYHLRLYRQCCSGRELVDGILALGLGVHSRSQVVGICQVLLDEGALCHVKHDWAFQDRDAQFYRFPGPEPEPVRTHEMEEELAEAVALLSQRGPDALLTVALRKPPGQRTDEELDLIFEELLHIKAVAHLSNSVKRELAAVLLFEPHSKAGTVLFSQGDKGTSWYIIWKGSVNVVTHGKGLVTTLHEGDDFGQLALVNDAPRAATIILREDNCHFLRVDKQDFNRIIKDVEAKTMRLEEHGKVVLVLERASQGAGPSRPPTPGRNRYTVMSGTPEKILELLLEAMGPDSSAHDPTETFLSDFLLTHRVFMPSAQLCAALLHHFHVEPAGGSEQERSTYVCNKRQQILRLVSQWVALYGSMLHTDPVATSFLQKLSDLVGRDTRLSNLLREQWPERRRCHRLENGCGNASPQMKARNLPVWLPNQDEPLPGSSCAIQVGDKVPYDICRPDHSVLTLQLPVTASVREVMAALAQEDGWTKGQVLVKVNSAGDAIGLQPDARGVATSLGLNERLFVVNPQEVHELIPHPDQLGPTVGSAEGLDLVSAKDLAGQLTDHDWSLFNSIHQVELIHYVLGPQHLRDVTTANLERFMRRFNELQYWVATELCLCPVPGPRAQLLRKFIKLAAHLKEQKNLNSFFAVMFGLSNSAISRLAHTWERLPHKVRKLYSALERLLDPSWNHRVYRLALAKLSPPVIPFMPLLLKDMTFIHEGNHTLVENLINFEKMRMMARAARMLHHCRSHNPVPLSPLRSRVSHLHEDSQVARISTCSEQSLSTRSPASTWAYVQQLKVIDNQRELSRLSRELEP
Potency is read from the fitted curve at half-maximal effect; tags tell the direction and shape of the fitted curve.

| SMILES | Potency | activation |
| --- | --- | --- |
| O=C(NN=Cc1c(O)ccc2ccccc12)c1ccncc1 | inconclusive [activator, partial curve, poor fit] | – |
| COc1ccc(S(=O)(=O)Nc2c(C)nn(C)c2C)cc1Br | – | inactive: 17.1% |
| CC(=O)Nc1ccc(NS(=O)(=O)c2cn(C)c(=O)n(C)c2=O)cc1 | – | inactive: 7.39% |
| COc1cc2c(c(OC)c1OC)C(c1ccc(C)cc1)CC(=O)O2 (stereo not drawn) | inconclusive [activator, partial curve, poor fit] | – |
| O=c1[nH]c2ccccc2nc1/C=C(\O)c1cccs1 | inconclusive [activator, partial curve, poor fit] | – |
| COC(=O)c1ccc(CSc2ccc3nnc(-c4cccc(F)c4)n3n2)o1 | – | inactive: -11.1% |
| Cc1ccc(Nc2cc(C)nc3c(C)ccc([N+](=O)[O-])c23)cc1 | inconclusive [activator, partial curve, poor fit] | – |
| CCN(CC)c1ccc2cc(C(C)=O)c(=O)oc2c1 | active: 89.1 µM | – |
| N=C1SC(c2ccccc2)C(=O)N1c1ncc(Cc2ccccc2Cl)s1 (stereo not drawn) | – | inconclusive: 19.9% [activator] |
| CC(C)(CNC(=O)Cc1ccc(NS(=O)(=O)c2cccc(C(F)(F)F)c2)cc1)N1CCOCC1 | – | inactive: 2.17% |
| O=C1OC(c2ccccc2)(c2ccccc2)c2ccccc21 | inconclusive [activator, partial curve, poor fit] | – |
| CN1CCS/C1=C/C=C1\SC(=S)N(CC(=O)O)C1=O | active: 50.1 µM | – |
| O=C(Cn1c(=O)n(-c2ccccc2)c(=O)c2c3c(sc21)CCC3)c1ccc(Br)cc1 | inconclusive [activator, partial curve, poor fit] | – |
